For part of its entries the source gives two or more results. They are shown here; other results are not. There may be further records. Values given together are repeated measurements (runs, samples, wells, individuals or studies). Brackets tell where a record comes from. The letters are not those of the source and start again with each entry.
Test system: CEM cells HIV-1 protection, formazan growth assay
Assay: NCI AIDS Antiviral Assay
Conditions: for IC50: measured here: growth of uninfected CEM cells
Procedure, shortened: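 Protection of CEM cells against HIV-1 was scored from cell growth (soluble formazan) across five concentrations, with parallel uninfected cells. Lack of protection may reflect toxicity.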

Row | Structure (SMILES) | EC50 | IC50
1 | NC1(C(=O)O)CSSC1 | 6.76 µM [sample A] and > 1.51 mM [sample B] | 
2 | CCCCCCCCCCCCCCCCOP(=O)(O)OP(=O)(O)OCC1OC(n2ccc(N)nc2=O)C(O)C1O (stereo not drawn) |  | 195 µM [sample A] and 603 nM [sample B]
3 | CC(=O)Oc1ccc2c(c1)Oc1cc(OC(C)=O)ccc1C21OC(=O)c2ccccc21 |  | 10.5 µM [sample A] and > 200 µM [sample B]

— PubChem BioAssay AID179 (DTP/NCI, 2004)
